Among all 150,000 compounds or so, about 540 (0.36%) showed an effect of 50% or more. The list shows a part of the results.
System: Plasmodium falciparum
Experiment: Primary screen in NF54 nanoGlo assay, in single point, at 2uM, 72h; a lower Z score goes with more inhibition
Format: functional, Erythrocyte
Settings: timepoint 72 hour

| SMILES | % Inhibition [%] | Z score |
| --- | --- | --- |
| O=C(c1cc2ccccc2[nH]1)N1CCN2CCS(=O)(=O)N(C3CC3)C(=O)[C@@H]2C1 | -6 | 0.84 |
| CC[C@@H](CC#N)NC(=O)C1(C)CN(C(=O)OC(C)(C)C)C1 | -2 | 0.3 |
| Cn1ncc(CNC(=O)c2cnc3c(c2)c(C(F)(F)F)nn3C)n1 | -12 | 2.26 |
| O=C1CC[C@@]2(CCCN(C(=O)c3ccccc3O)C2)CN1CCc1c[nH]cn1 | -7 | 1.06 |
| CS(=O)(=O)N[C@H]1C[C@@H]2C[C@H]1N(C(=O)NCc1cccc(F)c1)C2 | 39 | -4.38 |
| Cc1[nH]ccc1C(=O)N1C[C@@H](CN2CCOCC2)C[C@H](CO)C1 | -1 | 0.22 |
| CC(NC1CCc2[nH]ncc2C1)c1ccc(S(C)(=O)=O)c(F)c1 (stereo unspecified) | -10 | 1.32 |
| COc1ccc(C(NC(=O)C(=O)c2cccnc2)[C@H]2C[C@@H](O)C2)cc1F (stereo partly specified) | -16 | 2.69 |
| Fc1ccc(CN2CCC[C@](CC3CC3)(c3noc(C4CCOCC4)n3)C2)cc1F | -2 | 0.27 |
| C=CCNC(=O)[C@H](C)N(C)Cc1ccc(OC)cc1OC | -16 | 1.35 |
| CC1CCN(C(=O)CC[C@]2(Cc3ccc4ccccc4c3)CCC(=O)N2)CC1 | 4 | -0.52 |
| O=C(c1nc2ccccc2[nH]1)N1CCC(Oc2ccc(CN3CCN(c4cccc(Cl)c4)CC3)cc2)CC1 | -15 | 2.1 |
| Cc1ccc(Nc2nc(C)c(NC(=O)c3ccccc3C)c(Nc3ccc(C)cc3)n2)cc1 | -11 | 2.12 |
| Fc1ccc(Cn2cc(C(F)(F)F)nc2-c2cccnc2)cc1F | -3 | 0.37 |
| C[C@H]1CN(C(=O)c2cccn2C2CCCC2)CC2(CCC2)O1 | 0 | -0.01 |
| CC(C)(C)c1csc(C2CCN(C(=O)C3=COCCO3)CC2)n1 | 1 | -0.15 |
| CC(C)(C)c1cnc(COC(=O)COc2ccccc2F)o1 | -3 | 0.31 |
| CC(=O)N[C@H]1[C@H](NC(=O)c2ccsc2)[C@@H]2CCO[C@@H]21 | -8 | 0.87 |
| O=C(NCCc1ccc2c(c1)OCO2)N1CCN(c2nccs2)CC1 | -48 | 5.6 |
| CCOc1cccc(CN(CCO)C(=O)c2ccc([C@H]3CCCNC3)cc2)c1 | -5 | 0.91 |
| Cc1ccc(OC2CCN(Cc3ccncc3)CC2)c(C(=O)N2CC(O)C2)c1 | -24 | 2.54 |
| CC1(C)CN(CC(=O)NC[C@H]2CCCO2)CC(C)(C)O1 | -11 | 1.14 |
| Cn1cnc(CNC(=O)Nc2ccnc(C3(C)CC3)n2)c1 | -1 | 0.14 |
| O=C(c1ncc[nH]1)N1CCC[C@H](C(F)(F)F)C1 | 4 | -0.46 |
| O=C(CCC1CCCC1)Nc1ccc2c(c1)CCC2 | 2 | -0.28 |
| Cc1cnc(C2CCC2)n1C[C@H]1CCCN(Cc2cn(C)c3ccccc23)C1 | 5 | -0.82 |
| Cc1ccsc1C(=O)N1CCC(N2C(=O)CC[C@H]2C(=O)NCc2cccnc2)CC1 | 1 | -0.09 |

| SMILES | % Inhibition [%] | Z score |
| --- | --- | --- |
| CCOC(=O)c1ccc(N2CCn3nc(C(=O)OC)cc3C2)nc1 | -3 | 0.38 |
| Nc1ccc(-c2nc3cc(S(=O)(=O)c4ccc5oc(-c6ccc(N)cc6)nc5c4)ccc3o2)cc1 | 31 | -3.47 |
| Cn1ccc(C(=O)N(C2CC2)C2CN(C(=O)OC(C)(C)C)C2)n1 | -5 | 0.68 |
| C[C@H](O)CCn1ccnc1-c1cccc(-c2ccco2)c1 | 0 | 0.05 |
| NC(=O)CN1CCCN(c2ccc3nnc(C(F)(F)F)n3n2)CC1 | 3 | -0.52 |
| Cc1ccc([C@H]2c3ccccc3CCN2C(=O)c2ccc(-c3cccc(Cl)c3)s2)cc1 | 1 | -0.15 |
| CC(C)=CCN1CC2(CCN(c3cnccn3)CC2)CC1=O | -10 | 1.21 |
| Cc1nscc1C(=O)Nc1ccnc(C(N)=O)c1 | -2 | 0.16 |
| CC(C)CN1CCNC(=O)[C@@H]1CC(=O)NCCOC(C)C | -5 | 0.57 |
| O=C(NCC(c1cccs1)n1cccn1)C1CCOC1 (stereo unspecified) | 8 | -1.15 |
| Cc1oncc1CNC(=O)c1ccno1 | 0 | -0.04 |
| OCC(O)C1OC(Nc2ccc(Br)cc2)C(O)C1O (stereo unspecified) | -11 | 1.49 |
| C[C@@H](CN1CCN(C)CC1)OC(=O)COc1ccc(C(C)(C)C)cc1 | -8 | 1.07 |
| O=C(O)C[C@@H]1CN(C(=O)CCc2ccccc2F)C[C@@H]1c1c[nH]nn1 | -16 | 1.76 |
| C[C@@H](C1CC1)N(C(=O)Cn1cnc2cc(F)c(F)cc2c1=O)C1CC1 | 4 | -0.44 |
| Cc1cc(C(=O)N2CC(Cn3c(C)cnc3-c3ccccc3)C2)n(C)n1 | -10 | 1.25 |
| Nc1nc(NCCO)cc(-c2ccc(-c3ccn[nH]3)cc2)n1 | 10 | -1.62 |
| CCC(=O)Nc1nc(COC)ns1 | 9 | -1.1 |
| CCOc1ccc(NC(=O)Cn2nc3c(N4CCOCC4)nc4ccccc4n3c2=O)cc1 | -3 | 0.42 |
| CC1(N2CCOCC2)CN(c2ncc(Br)cn2)C1 | 6 | -0.61 |
| CNC(=O)C[C@H](C)N(C)Cc1ccnc(C(C)C)n1 | -2 | 0.37 |
| COc1cc(=O)n(-c2ccccc2)nc1C(=O)N1CCN(C(c2ccccc2)c2ccccc2)CC1 | -11 | 1.12 |
| Cc1cc2c(cc1CN1CCN3C(=O)OC[C@H]3C1)OCO2 | -10 | 1.81 |
| FC(F)(F)c1cccc(N2CC(c3ccncc3)C2)n1 | -9 | 1.18 |
| O=C(NC[C@H](CC1CC1)C(=O)O)c1ccc2sccc2c1 | -5 | 0.6 |
| Cc1cc(C)cc(NC(=O)c2c(C)sc3ncnc(N4CCCC4)c23)c1 | -2 | 0.31 |

Reference: ChEMBL document CHEMBL4888484, “Replenishing the malaria drug discovery pipeline: Screening and hit evaluation of the MMV Hit Generation Library 1 (HGL1) against asexual blood stage Plasmodium falciparum ,using a nano luciferase reporter read-out” (2022)
